In the RNAGym collection of RNA variant scans (doi:10.7554/elife.90254) one finds self-cleavage data, which are given here for 39 variants.

Read counts are not given, so values of variants with three or more changes are uncertain.

To fix the notation:
B1: LINE1-full (parent)
chain: UACGUAGGUGGUUUUCCCCUGAUAGUGCUAAGGGGGCCUGGAAGUUUGGACUGGGCAGAGCUCAACACAGCGUGGCAAAGUGGCUGUGGCUAGACUGCCUCUCUGGAUUCCUCGUCACUCAGCAGGGCAUCUCUGAGAGAAAUGCC

This data set covers variants of B1. Put plainly: self-cleavage, relative activity (ratio to wild type); higher = more cleavage; in vitro, sequencing; the parent is a self-cleaving ribozyme.
On to UACGUAGACGGUUUUCCCCUGUUAGUGCUAAGGGGGCCUGGAAGUUUGGACUGGGCAGAGCUCAACACAGCGUGGCAAAGUGGCUGUGGCUAGACUGCCUCUCUGGAUUCCUCGUCACUCAGCAGGGCAUCUCUGAGAGAAAUGCC [G8A U9C A22U], for which the self-cleavage was determined as 2.6.
For UACGUAGGUGGUUUUCCCCUGAUAGUGCUAAGGGGGCCUUGAAGUUUGGACUGGGCAGAGCUCAACACAGCGAGGCAAAGUGGCUGUGGCUAGACUGCCUCUCUGGAUUCUUCGCCACUCAGCAGAGCAUCUCUGAGAGAAACGCC [G40U U73A C111U U115C G126A U143C], the self-cleavage was 1.51.
Then UACGUAGGUGGUUUUCCCCUGAUAGUGCUAAGGGGGCCUGGAAGUAUGGACUGGGCAGAGCUCAACACAGCGUGGCAAAGUGGCUGUGGCUAGAUUGCCUCUCUGGAUUCCUCGUCACUCAGCAGGGCACCUCUGAGAGAAAUGCC [U46A C95U U130C], with 0.4; and UACGUAGGUGGUUUUCCCCUGAUAGUGCUGAGGGGGCCUGGAAAUUUGGACUGGGCAGAGCUCAACACAGCGUGGCAAAGAGGCUGUGGCUAGUCUGCCUCUCUGGAUUCCUCGUCACUCAGCAGGGCAUCUCUGAGAGAAAUGCC [A30G G44A U81A A94U], with 0.21; and UACGUAGGAGGCUUUCCCCUGAUAGUGCUAAGGGGGCCUGGAAGUUUGGACUGGGCUGAGCUCUACACAGCGUGGCAAAGUGGCUGUGGCUAGACUGCCUCUCUGGAUUCCUCGUCACUCAGCAGGGCAUCUCUGAGAGAAAUGCC [U9A U12C A57U A64U], with 0.38.
With UACGUAGGUGGGUUUCCCCUGAUAGUGCUAAGGGGGCCUGGAAGUUUAGACUGGGCAGAGCUCAACACAGCGUGGCAAAGUGGCUGUGGCUAGACUGCCUCUCUGGAUCCCUCGUCACUCAGCAGGGCAUCUCUGAGAGAAAUGCC [U12G G48A U109C], the self-cleavage amounted to 0.84.
Take UACGUAGGUGGUUUUCCCCUGAUAGUGCUAAGGGGGCCUGGAAGUUUGAGCUGGGCAGAGCUCAACACAGCGUGGCAAAGUGGCUAUGGCUAGACUGCCUCUCUGGAUUCCUCGUCACUCAGCAGGGCAUCUCUGAGAGAAAUGCC [G49A A50G G86A]: the self-cleavage came to 0.2.
For UACGUAGGUGGUUUUCCCCUGAUAGUGCUAAGGGGGCCUGGAAGUUUGGACUGGGCAGAGCUCUACACAGCGUGGCAAAGUGGCUGUGUCUAGACUGCCUCUCUGAAUUCCUCGCCACUCAGCAGGGCAUCUCUGAGAGAAAUGCC [A64U G89U G106A U115C], the self-cleavage is 0.02.
For UACGUAGGUGGUUUGCCCCUGAUAGUGCUAAGGGGGCCUGGAAGUUUGGACUGGGCAGAGCUCAACACAGCGCGGCAAAGUGGCUGUGGCUAGACUGCCUCUCUGGAUUCCUUGUCACUCAGCAGGGCAUCUCUGAGAGGAAUGCC [U15G U73C C113U A140G], the self-cleavage was 0.28.
As for UACGUAGGUGGUUUUCCCCUGAUAGUGCUAAGGGGGCCUGGAAGUUUGGACUGGGCAGAGCUCAAAACUGCGUGGCAAGGUGGCUGUGGCUAGACUGCCUCUCUGGAUUCCUCGUCACUCAGCAGGGCAUCUCUGAGAGAAAUGCC [C66A A69U A79G], the figure is 0.03; as for UACGUAGGUGGUUUUCUCCUGAUAGUGCUAAGGGGGCCUGGAAGUUUGGACUGGGCAGAGCUCAACACAGCGUGGCAAAGUGGCUGUGGCUAGACUGCCUCUCUGGAUUCCUCGUCACUCAGCGGGGCAUCCCUGAGAGAAAUGCC [C17U A124G U132C], 1.11; as for CACGUUGGUGGUUUUCCCCUGAUAGUGCUAAGGGGGCCUGGAAGUUUGGACUGGGCAGAGCUCAACACAGCGUGGCAAAGUGGCCGUGGCUAGACUGCCUCUCUGGAUUCCUCGUCACUCAGCAGGGCAUCUCUGAGAGAAAUGCC [U1C A6U U85C], 0.21.
With UACGUAGGUGGUUCUCCCCUGAUAGUGCUAAGGGGGCCUGGAAGUUUGGACUGGGCAGAGCUCAACACAGCGUGGCAAAGUGGCUGUAGCUAGACUGCCUCUCUGGAUUCCUCGUCACUCAGCGGGGCAUCUCUGAGAGAAAUGCC [U14C G88A A124G], the self-cleavage was 0.06.
As for AACGUAGGUGGUUUUCCCCUGAUAGUGCUAAGGGGGCCUGGAAGUUUGGACUGGGCAGAGCUCAGCACAGCGUGGCAAAGUGGCUGUGGCUAGACUGCCUCUCUGGACUCCUCGUCACUCAGCAGGGCAUCUCUGAGAGAAAUGCC [U1A A65G U108C], the figure is 0; as for UACGUAGGUGGCUUUCCCCUGACAGUGCUAAGGGUGCCUGGAAGUUUGGACUGGGCAGAGCUCAACACAGCGUGGCAAAGUGGCUGUGGCUAGACUGCCUCUCUGGAUUCCUCGUCACUCAGCAGGGCAUCUCUGAGAGAAAUGCC [U12C U23C G35U], 0.92.
As to UACGUAGGUGGUUUUCCCCUGAUAGUGCUAAGGGGGCCUGGAAGUUUGGACUGGGCAGAGCUCAACACAGCGCGGCAAAGUGGCUGUGGCUAGACUGCCUCUCUGGAUUCCUCGUCACUCAGCAGGGCAUCUCUGAGAGAAGCGCC [U73C A142G U143C], the self-cleavage turned out to be 1.84.
As for UACGUAGGUGGUUUACCCUUGAUAGUGCUAAGGGGGCCCGGAAGUUUGGACUGGGCAGAGCUCAACGCAGCGUGGCUAAGUGGCUGUGGCUAGACUGCCUCUCUGGAUUCCUCGUCACACAGCAGGGCAUCUCUGAGUGAAAUGCC [U15A C19U U39C A67G A77U U119A A138U], the figure is 0.12; as for UAUGUAGGUGGUUUUCCCCUGAUAGUGCUAAGGGGGCCUGGAAGUUUGGACUGGGCAGAGCUCAACACAGCGUAGCAAAGUGGCUGUGGCUAGACUGCCUCUCUGGACUCCUCGUCACUCAGCAGGGCAUCUCUGAGAGAAAUGCC [C3U G74A U108C], 0.82; as for UACGUAGGUGGUUUUCCCCUGACAGUGCUAAGGGGGCCUGGAAGUAUGGACUGGGCAGAGCUCGACACAGCGUGGCAAAGUGGCUUUGGCUAGACUGCCUCUCUGGAUUCCUCGUCACUCAGCAGGGCAUCCCUGAGAGAAAUGCC [U23C U46A A64G G86U U132C], 0.06.
For the variant UACGUAGGUGAUUUUCCCCUGAUAGUGCUAAGGGGGCCUGGAAGUUUGGACUGGGCAGAGCUCAACACAGCGUGGCAGAGUGGCUGUGACUAGACUGCCUCUCUGGAUUCCUCGUCACUCAGCAGGGCAUCUCUGAGAUAGAUGCC [G11A A78G G89A G139U A141G], the self-cleavage amounted to 0.06.
With UACGUAGGUGGUUUUCCCCUGAUAGUGCCGAGGGGGCCUGGAAGUUUGGACUGGGCAGAGCUCAACACAGCGUGGCAAAGUGGCUGUGGCCAGACUGCCUCUCUGGAUUCCUCGUCACUCAGCAGGGCAUCUCUGAGAGAAAUGCC [U29C A30G U91C], the self-cleavage was 0.77.
Then AACGUAGGUGGUUUUCCCCUGAUAGUGCUAAGGGGGUCUGGAAGUUUGGACUGGGCAGAGCUCAACACAGCGUGGCAAAGUGGCUGUGGCUAGACUGCCUCUCUGGACUCCUCGUCACUCAGCAGGGCAUCUCUGAGAGAAAUGCC [U1A C37U U108C], with 1.74; and UACGUAGGUGGUUUUCCCCUGAUAGUGCUAAGGGGGCCUGGAAGUCUGGACUGGGCAGAGCUCAACACAGCGUGGCAGAGUGGCCGUGGCUAGACUGCCUCUCUGGAUUCCUCGUCACUCAGCAGGGCAUCUCUGAGAGAAAUGCC [U46C A78G U85C], with 0.46.
Take UACAUAGAUGGUUUUCCCCUGAUAGUGCUAAGGGGGCCUGGAAGUUUGGACUGGGCAGAGCUCAACACAGCGUGGCAAAGUGGCUGCGGCUAGACUGCCUCUCUGGAUUCCUCGUCACUCAGCAGGGCACCUCUGAGAGAAAUGCC [G4A G8A U87C U130C]: the self-cleavage was 0.61.
UACGUAGGUGGUCUUCCCCUGAUAGUGCUAAGGGGGCCUGGAAGUUUGGACUGGGCAGAGCUCAACACAGCGUGGCGAAGUGGCUGUGGCUAGACUGCCUCUCUGGAUACCUCGUCACUCAGCAGGGCAUCUAUGAGAGAAAUGCC [U13C A77G U109A C133A]: the self-cleavage is 1.31.
Then CACGUAGGUGGUUUUCCCCUGAUAGUGCUAAGGGGGCCUGGAAGUUUGGACUGGGCAGAGCUCAACACAGCGUGGCAAAGUGGCUGUGGCUAGACUGCCUCUCUGGAUUCCUCGUCACUCAGCGGGGCAUCUCUGAGGGAAAUGCC [U1C A124G A138G], with 0.91; and UACGUAGGUGGUUUUCCCCUGAUAGUGCUAAGGGGGCCUGGAAGUUUGGACUGGGCAGAGCUCAACACCGCGUGGCAAAGUGGCUGUGGCUAGACUGCCUCUCUGGACUCCUCGUCACUCCGCUGGGCAUCUCUGAGAGAAAUGCC [A69C U108C A121C A124U], with 0.
Turning to UACGUAGGUGGUUUUCCCCUGAUAGUGCUAAGGGGGCCUGGAAGCUUGGACUGGGCAGAGCUCAACACAGCGUGGCAAAGUGGCUGUGGCUAGACUGCCUCUCUGGAUCCCUCGUCACUCAGCAGGGCAUCUCUGAGGGAAAUGCC [U45C U109C A138G], the self-cleavage amounted to 0.51.
Take UUCGUAGGUGGCUUUCCCCUGGUAGUGCUAAGGGGGCCUGGAAGUUUGGACUGGGCAGAGCUCAACACAGCGUGGCAAAGUGGCUGUGGCUAGGCUGCCUCUCUGGAUUCCUCGUCACUCAGCAGGGCAUCUCUGAGAGAAAUGCC [A2U U12C A22G A94G]: the self-cleavage is 1.15.
With UACGUAGGAGGUUUUCCCCUGAUAGUGCUAAGGGGGCCUGGAAGUUUGGACUGGGCAGAGCUCAACACAGCGUGGCAAAGUGGCUGUGGCUAGACUGCCUCUCUGGAUUCCUCGUCACUCAGCAGGGCACCUCUGAGAGAAGUGCC [U9A U130C A142G], the self-cleavage came to 1.61.
With UACGUAGGUGGUUUUCCCCAGAUAGUGCUAAGGGGGCCUGGAAGUUUGGACUGGGCAGAGCUCAACACAGCGUGGCAAAGUGGCUGUGGCUAGACUGCCCCUCUGGAUUCCUCGUCACUCAGCAGGGCAUCUCUGAGAGAAACGCC [U20A U100C U143C], the self-cleavage turned out to be 2.19.
Consider UACGUAGGUGGUUUUCCCCUGAUAGUGCUAAGGGGGCCUGGAAGUUUGGACUGGGCAGAGCUCAGCACAGCGGGGCAGAGUGGCUGUGGCUAGACUGCCUCUCUGGAUUCCUCGUCACUCAGCAGGGCAUCUCUGAGAGAAAUGCC [A65G U73G A78G], for which the self-cleavage turned out to be 0.1.
UACGUAGGUGGUUUUCCCCUGAUAGUGCCAAGGGGGCCUGGAAGUUUGGACUGGGCAGAGCCCAACACAGCGUGGCGGAGUGGCUGUGGCUAGACUGCCUCUCUGGAUUCCUCGUCACUCAGCAGGGCAUCUCUGAGAGAAAUGCC [U29C U62C A77G A78G]: the self-cleavage was 0.66.
On to UACGUAGGUGGUUUUCCCCUGAUAGUGCUAAGGGGGCCUGGAGGUUUGGACUGGGCAGAGCUCAACACAGCGAGGCAAAAUGGCUGUGGCUGGACUGCCUCUCUGGAUUCCUCGUCACUCAGCAGGGCAUCUCUGAGAGAAAUGCC [A43G U73A G80A A92G], for which the self-cleavage worked out at 0.08.
For the variant UACGUAGGUGGUUUUCCCCUGUUAGUGCUAAGGGAGCCUGGAGGUUUGGACUGGGCAGAGCUCAACACAGCGUGGCAAAGUGGCUGUGGCUAGACUACCUCUCUGGAUUCCUCGUCACUCAGCAGGGCAUCUCUGAGAGAAAUGCC [A22U G35A A43G G97A], the self-cleavage is 0.06.
For UACGUAGGUGGUUUUCCCCUGAUAGCGCUAAGAGGGCCUGGAAGUUUGGACUGGGCAGGGCUCAACACAGCGAGGCAAAGUGCCUGUGGCUAGACUGCCUCUCUGGAUUCCUCGUCACUCAGCAGGGCAUCUCUGAGAGAGAUGCC [U26C G33A A59G U73A G83C A141G], the self-cleavage worked out at 0.06.
With UACGUAGGUGGUUUCCCCCUGAUAGUGCUAAGGGGGCCUGGAAGUUUGGACUGGGCAGAGCUCAACACAGCGUGGCAAAGUGGCUGUGGCUAGACUGCCUCUCUGGAUUCCUCGUCCCUCAGCAGGGCAUCUCUGAGAGAAGUGCC [U15C A117C A142G], the self-cleavage was found to be 1.87.
On to UACGUAGGUGGUUUUCCCCUGAUAGUGCUAAGGGGGCCUGGAAGUUUGGACUGGGCAGAGCUCAACACAGCGUGGCAAAGUGGCCGUGGCUAGACCGCCUUUCUGGAUUCCUCGUCACUCAGCAGGGCAUCUCUGAGAGAAAUGCC [U85C U96C C101U], for which the self-cleavage was determined as 0.09.
Then UACGCAGGUGGUCUUCCCCUGAUAGUGCUAAGGGGGCCUGGAAGUUUGGACUGGGCAGAGCUCAACACAGCGUGGCAAAGUGGCUGUGGCUAGACUGCCACUCUGGAUUCCUCGUCACUCAGCAGGGCAUCUCUGAGAGAAAUGCC [U5C U13C U100A], with 0.72.
